# In PMC12820563:
# The list shows a part of the results. The list includes weakly bound sequences.
# Biological target: T1, MBP-FoxP3dN (UniProt Q99JB6)
# T1 sequence: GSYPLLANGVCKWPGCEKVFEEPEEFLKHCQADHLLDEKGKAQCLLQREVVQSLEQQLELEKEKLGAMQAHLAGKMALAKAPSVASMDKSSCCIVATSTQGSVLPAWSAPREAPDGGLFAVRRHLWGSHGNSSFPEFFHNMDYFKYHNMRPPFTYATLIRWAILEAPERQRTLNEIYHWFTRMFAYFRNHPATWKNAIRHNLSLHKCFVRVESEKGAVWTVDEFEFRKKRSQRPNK
# Assay: PD-seq (MBP pull-down with sequencing)
# Conditions: 20 mM Tris-HCl pH 7.5, 100 mM NaCl, 1.5 mM MgCl2, 0.4 uM protein, 0.1 uM dsDNA library, 30 min, room temperature, amylose pull-down; high values mean tight binding; double strand, one strand shown
row,Sequence,binding signal (RPM ratio (pull-down/input))
1,GATGATTGTTCTCCCAGCTGATGAATTCTCAAGATCGAGTAAACAAATTTTCCTAATCTTTCTGTTCAAGCGCCATCTAC,0.209
2,GATGATTGTTCTCCCAGCTGATGAATTTTCCACCTCGAGTAAACAAATTTTCCTAATCTTTCTGTTCAAGCGCCATCTAC,0.229
3,GATGATTGTTCTCCCAGCTGATGAATTCCATCTCTCGAGTAAACAAATTTTCCTAATCTTTCTGTTCAAGCGCCATCTAC,0.534
4,GATGATTGTTCTCCCAGCTGATGAATTCCATATGTCGAGTAAACAAATTTTCCTAATCTTTCTGTTCAAGCGCCATCTAC,0.655
5,GATGATTGTTCTCCCAGCTGATGAATTATAAAGATCGAGTAAACAAATTTTCCTAATCTTTCTGTTCAAGCGCCATCTAC,0.233
6,GATGATTGTTCTCCCAGCTGATGAATTATCTCAGTCGAGTAAACAAATTTTCCTAATCTTTCTGTTCAAGCGCCATCTAC,0.275
7,GATGATTGTTCTCCCAGCTGATGAATTCTCTTTTTCGAGTAAACAAATTTTCCTAATCTTTCTGTTCAAGCGCCATCTAC,0.449
8,GATGATTGTTCTCCCAGCTGATGAATTGCGCTGATCGAGTAAACAAATTTTCCTAATCTTTCTGTTCAAGCGCCATCTAC,0.898
9,GATGATTGTTCTCCCAGCTGATGAATTCCACTGGTCGAGTAAACAAATTTTCCTAATCTTTCTGTTCAAGCGCCATCTAC,0.27
10,GATGATTGTTCTCCCAGCTGATGAATTCCTTGGCTCGAGTAAACAAATTTTCCTAATCTTTCTGTTCAAGCGCCATCTAC,0.222
11,GATGATTGTTCTCCCAGCTGATGAATTGTATCTCTCGAGTAAACAAATTTTCCTAATCTTTCTGTTCAAGCGCCATCTAC,1.51
12,GATGATTGTTCTCCCAGCTGATGAATTCCAGCTATCGAGTAAACAAATTTTCCTAATCTTTCTGTTCAAGCGCCATCTAC,0.58
13,GATGATTGTTCTCCCAGCTGATGAATTGAAATGCTCGAGTAAACAAATTTTCCTAATCTTTCTGTTCAAGCGCCATCTAC,0.58
14,GATGATTGTTCTCCCAGCTGATGAATTACTTGAATCGAGTAAACAAATTTTCCTAATCTTTCTGTTCAAGCGCCATCTAC,0.248
15,GATGATTGTTCTCCCAGCTGATGAATTCCTCAATTCGAGTAAACAAATTTTCCTAATCTTTCTGTTCAAGCGCCATCTAC,0.274
16,GATGATTGTTCTCCCAGCTGATGAATTCTTATAATCGAGTAAACAAATTTTCCTAATCTTTCTGTTCAAGCGCCATCTAC,0.359
17,GATGATTGTTCTCCCAGCTGATGAATTCACTTTGTCGAGTAAACAAATTTTCCTAATCTTTCTGTTCAAGCGCCATCTAC,0.686
18,GATGATTGTTCTCCCAGCTGATGAATTTTTACACTCGAGTAAACAAATTTTCCTAATCTTTCTGTTCAAGCGCCATCTAC,0.334
19,GATGATTGTTCTCCCAGCTGATGAATTGTTCTTGTCGAGTAAACAAATTTTCCTAATCTTTCTGTTCAAGCGCCATCTAC,0.412
20,GATGATTGTTCTCCCAGCTGATGAATTGGGTAGATCGAGTAAACAAATTTTCCTAATCTTTCTGTTCAAGCGCCATCTAC,0.323

row,Sequence,binding signal (RPM ratio (pull-down/input))
1,GATGATTGTTCTCCCAGCTGATGAATTTTAGAGTTCGAGTAAACAAATTTTCCTAATCTTTCTGTTCAAGCGCCATCTAC,0.434
2,GATGATTGTTCTCCCAGCTGATGAATTACAGGGTTCGAGTAAACAAATTTTCCTAATCTTTCTGTTCAAGCGCCATCTAC,0.437
3,GATGATTGTTCTCCCAGCTGATGAATTTGGGTTATCGAGTAAACAAATTTTCCTAATCTTTCTGTTCAAGCGCCATCTAC,0.888
4,GATGATTGTTCTCCCAGCTGATGAATTCATGCTGTCGAGTAAACAAATTTTCCTAATCTTTCTGTTCAAGCGCCATCTAC,0.686
5,GATGATTGTTCTCCCAGCTGATGAATTGGCGTTGTCGAGTAAACAAATTTTCCTAATCTTTCTGTTCAAGCGCCATCTAC,1.16
6,GATGATTGTTCTCCCAGCTGATGAATTGTCTCCTTCGAGTAAACAAATTTTCCTAATCTTTCTGTTCAAGCGCCATCTAC,0.397
7,GATGATTGTTCTCCCAGCTGATGAATTTTCAGCGTCGAGTAAACAAATTTTCCTAATCTTTCTGTTCAAGCGCCATCTAC,0.439
8,GATGATTGTTCTCCCAGCTGATGAATTTGCTCCCTCGAGTAAACAAATTTTCCTAATCTTTCTGTTCAAGCGCCATCTAC,0.583
9,GATGATTGTTCTCCCAGCTGATGAATTGCGCGCGTCGAGTAAACAAATTTTCCTAATCTTTCTGTTCAAGCGCCATCTAC,2.67
10,GATGATTGTTCTCCCAGCTGATGAATTAGCGATTTCGAGTAAACAAATTTTCCTAATCTTTCTGTTCAAGCGCCATCTAC,0.695
11,GATGATTGTTCTCCCAGCTGATGAATTCTAAAAGTCGAGTAAACAAATTTTCCTAATCTTTCTGTTCAAGCGCCATCTAC,0.187
12,GATGATTGTTCTCCCAGCTGATGAATTGTATTGCTCGAGTAAACAAATTTTCCTAATCTTTCTGTTCAAGCGCCATCTAC,2.59
13,GATGATTGTTCTCCCAGCTGATGAATTGCCAGACTCGAGTAAACAAATTTTCCTAATCTTTCTGTTCAAGCGCCATCTAC,0.378
14,GATGATTGTTCTCCCAGCTGATGAATTCAGCCCTTCGAGTAAACAAATTTTCCTAATCTTTCTGTTCAAGCGCCATCTAC,0.806
15,GATGATTGTTCTCCCAGCTGATGAATTGCATGGATCGAGTAAACAAATTTTCCTAATCTTTCTGTTCAAGCGCCATCTAC,1.1
16,GATGATTGTTCTCCCAGCTGATGAATTTGACTCATCGAGTAAACAAATTTTCCTAATCTTTCTGTTCAAGCGCCATCTAC,0.606
17,GATGATTGTTCTCCCAGCTGATGAATTTAAATAGTCGAGTAAACAAATTTTCCTAATCTTTCTGTTCAAGCGCCATCTAC,0.402
18,GATGATTGTTCTCCCAGCTGATGAATTAAACAGATCGAGTAAACAAATTTTCCTAATCTTTCTGTTCAAGCGCCATCTAC,0.408
19,GATGATTGTTCTCCCAGCTGATGAATTAGGCATATCGAGTAAACAAATTTTCCTAATCTTTCTGTTCAAGCGCCATCTAC,2.17
20,GATGATTGTTCTCCCAGCTGATGAATTGCTAACCTCGAGTAAACAAATTTTCCTAATCTTTCTGTTCAAGCGCCATCTAC,0.572
